Laboratory results from PubChem BioAssay AID1466 (National Center for Advancing Translational Sciences (NCATS), 2008).
About 10 (0.005%) of roughly 200,000 compounds were called active. Inconclusive means that the source gave no clear call. Such entries were picked first, then a sample of the others. Calls come from the whole dose curve; as a rule, active = well fitted inhibition curve with a large enough effect; inconclusive = small, poorly fitted or top-dose-only effect, or effect the other way, or another doubt; inactive = no such curve, though single readings can be large or run the other way. Where the call is inconclusive, the potency comes from a doubtful curve fit.

Target: Lysosomal alpha-glucosidase (Homo sapiens) (UniProt P10253)
Assay: qHTS Assay for Inhibitors of Human alpha-Glucosidase as a Potential Chaperone Treatment of Pompe Disease;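 for activity change, negative = inhibition: plate controls were uninhibited enzyme wells for no effect and no-enzyme background for full effect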
Settings: purified human GAA, 4-MU-alpha-glucoside fluorescence; activity change, negative = inhibition: at 76.9 µM (top of the series) unless noted
How it was run: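 Fluorescence at Ex 365/Em 440 nm from 4-methylumbelliferone reported enzyme activity after 20 min at room temperature. Reactions used 4 nM enzyme and 400 uM substrate at pH 5.0; curves fitted with the Hill equation.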
Potency is the fitted concentration of half-maximal effect; tags give direction and shape of the fitted curve.

SMILES | activity change, negative = inhibition | Potency
O=C(NCC1(c2ccccc2)CCCC1)C1(c2ccccc2)CCCC1 | inconclusive: -17.9% [inhibitor] | –
Cc1ccc(/C=N/NC(=O)CSc2ccccn2)o1 | inactive: 0.179% [at 15.4 µM] | –
COc1ccc(S(=O)(=O)Nc2c(C(=O)O)[nH]c3ccccc23)c(OC)c1 | inactive: -0.46% | –
Cc1cc2ccccn2c1C(=O)c1ccc(Cl)c([N+](=O)[O-])c1 | – | inconclusive: 7.08 µM [inhibitor, single point]
Cc1cc(N2CCC(C)CC2)nc(SCC(=O)c2ccccc2)n1 | – | inconclusive: 6.31 µM [inhibitor, partial curve]
Cc1cccc(-c2noc(CN(C(C)C)S(=O)(=O)c3ccc(F)cc3)n2)c1 | – | inconclusive: 15.8 µM [inhibitor, partial curve]
O=C(NCCNc1ccc([N+](=O)[O-])cc1C(F)(F)F)c1ccc(F)cc1 | – | inconclusive: 1 µM [inhibitor, full curve, poor fit]
Cc1noc(/C=C/N(C)C)c1S(=O)(=O)N1CCCC(C(=O)NCc2ccco2)C1 (stereo unspecified) | – | inconclusive: 35.5 µM [inhibitor, single point]
CN(C)CCCOC(=O)c1sc2ccccc2c1Cl | inconclusive: 12.4% [activator] | –
Cn1c(=O)c(/C=C/c2ccccc2)nc2ccccc21 | – | inconclusive: 50.1 µM [activator, single point]
Cc1oc(-c2ccc3ccccc3c2)nc1CN(C)C(C)c1ccncn1 (stereo unspecified) | inconclusive: 17% [activator] | –
CC1CCN(S(=O)(=O)c2ccc3c(c2)c(=O)c(C(=O)NC2CCCC2)cn3C)CC1 | inconclusive: -17.1% [inhibitor] | –
CC(C)C(NS(=O)(=O)c1cccs1)C(=O)N1CCc2ccccc2C1 (stereo unspecified) | – | inconclusive: 31.6 µM [inhibitor, single point]
COc1ccc(CCN(Cc2cc3cccc(C)c3[nH]c2=O)C(=O)NC2CCCCC2)cc1OC | – | inconclusive: 7.94 µM [inhibitor, single point]
CCC(C)NC(=O)c1ccc([N+](=O)[O-])c(Cl)c1 (stereo unspecified) | – | inconclusive: 31.6 µM [inhibitor, single point]
O=C1N=C(N2CCOCC2)S/C1=C\c1ccc(OS(=O)(=O)c2ccccc2)cc1 | – | inconclusive: 1.41 µM [inhibitor, full curve, poor fit]
CNc1nc2[nH]c(=O)c3c(c2s1)OC(N)=C(C#N)C3c1cccc(F)c1 (stereo unspecified) | inactive: -1.17% | –
Cc1cc(-c2cc(-c3ccc(Cl)cc3)nc(N)c2C#N)co1 | – | inconclusive: 5.01 µM [activator, partial curve]
CCOc1ccc(N(CC(=O)Nc2cccc(F)c2)S(=O)(=O)c2c(C)noc2C)cc1 | – | inconclusive: 39.8 µM [inhibitor, single point]
Oc1ccc(-c2[nH]ncc2-c2cnn(-c3ccccc3)c2)c(O)c1 | inactive: 5.77% | –
OCC1(CCc2ccccc2)CCN(Cc2cc(F)ccc2-n2cccn2)CC1 | – | inconclusive: 10 µM [inhibitor, partial curve]
CC(=O)Nc1ccc(OCc2nnc(-c3ccc(Cl)cc3)o2)cc1 | – | inconclusive: 11.2 µM [inhibitor, single point]

SMILES | activity change, negative = inhibition | Potency
CC(=O)N1CCN(c2ccc(NC(=O)c3ccc(C)cc3)cc2)CC1 | inactive: 6.62% | –
Cc1cc(=O)[nH]c(N/N=C/c2c[nH]c3ccccc23)n1 | inactive: -19.5% | –
Cc1ccc(S(=O)(=O)N2CCN(C(=O)CSc3nc4ccccc4c(=O)[nH]3)CC2)cc1 | – | inconclusive: 7.94 µM [inhibitor, partial curve]
CN(C)c1ccc(/C=N/NC(=O)c2ccnn2C)cc1 | – | inconclusive: 0.178 µM [inhibitor, full curve, poor fit]
Cc1ccccc1-c1nc(CN2CCCC(C(=O)NCCCN3CCOCC3)C2)c(C)o1 (stereo unspecified) | inconclusive: -16.6% [inhibitor] | –
CCOC(=O)Cc1[nH]nc2c1C(C1C=CCCC1)C(C#N)=C(N)O2 (stereo unspecified) | – | inconclusive: 28.2 µM [inhibitor, partial curve, poor fit]
CCCCn1c(SCc2cccnc2)nc2c1c(=O)n(C)c(=O)n2C | – | inconclusive: 11.2 µM [inhibitor, single point]
CCN(CC)CCNC(=O)c1cn(CC)c2ccc(S(=O)(=O)N(C)C)cc2c1=O | – | inconclusive: 22.4 µM [inhibitor, partial curve]
Cc1cc(NC2CCCCC2)nc(NCc2ccccc2)n1 | inactive: 3.03% | –
COc1cc(OC)nc(Oc2ccccc2C(=O)Oc2cccc(C)c2)n1 | – | inconclusive: 20 µM [activator, partial curve, poor fit]
Cc1ccc([N+](=O)[O-])cc1NC(=O)c1ccc2c(c1)OCO2 | inconclusive: 13.5% [activator] | –
Cc1cc(-n2c(=O)c(C#N)cc3c(=O)n4cccc(C)c4nc32)no1 | – | inconclusive: 35.5 µM [activator, partial curve]
O=C(CCCO)CCCCCCCCC[C@H]1N[C@H](CO)[C@@H](O)[C@@H]1O | – | inconclusive: 20 µM [inhibitor, partial curve]
Cc1cc(C)c2c(=O)[nH]c(=O)n(Cc3ccccc3)c2n1 | inconclusive: 13% [activator] [at 15.4 µM] | –
CN(C)/C=C/c1onc(-c2c(Cl)cccc2Cl)c1C#N | inconclusive: -17% [inhibitor] | –
CCOC(=O)c1sc2nc(SCC#N)n(CCCN3CCCC3=O)c(=O)c2c1C | – | inconclusive: 2.82 µM [inhibitor, partial curve, poor fit]
Cc1oc2cc(O)ccc2c(=O)c1-c1nncn1-c1ccccc1 | inconclusive: 24% [activator] | –
Cc1c(NC(=O)CSc2nnc(-c3cccc(Cl)c3)o2)c(=O)n(-c2ccccc2)n1C | – | inconclusive: 5.62 µM [inhibitor, single point]
O=C(CCSc1ccccc1)Nc1ccc(S(=O)(=O)N2CCOCC2)cc1 | – | inconclusive: 31.6 µM [inhibitor, single point]
COc1ccc(CNC(=O)CSc2nnc(Cn3nnc4ccccc43)n2C)cc1 | – | inconclusive: 0.794 µM [inhibitor, full curve, poor fit]
O=C(Nc1nnc(COc2ccc(Cl)cc2)s1)c1ccco1 | inconclusive: 13.1% [activator] | –
O=C1N/C(=C/c2ccc(N3CCOCC3)o2)C(=O)N1c1cccc(Cl)c1 | – | inconclusive: 56.2 µM [inhibitor, single point]

SMILES | activity change, negative = inhibition | Potency
COCCn1nnnc1CN(CCc1ccccc1)Cc1cc2ccc(C)cc2[nH]c1=O | – | inconclusive: 28.2 µM [inhibitor, single point]
CCNc1nc(NC(C)C)nc(N(C#N)CCOc2ccccc2)n1 | inconclusive: -19.9% [inhibitor] | –
Cc1ccc(-c2cnc(NCc3cc4c(cc3[N+](=O)[O-])OCO4)n2C)cc1C | inconclusive: 13.6% [activator] | –
Nc1ccccc1Nc1cc(-c2ccccc2)nn1-c1ccccc1 | inactive: -10.9% | –
CC(C)N1CCN(Cc2cccn2-c2nccs2)CC1CCO (stereo unspecified) | – | inconclusive: 22.4 µM [inhibitor, single point]
O=C(NC(=S)N1CCN(c2nc(-c3ccccc3)cs2)CC1)c1cncc(Br)c1 | inconclusive: 15.6% [activator] | –
CN(C)CCN1C(=O)c2oc3ccc(F)cc3c(=O)c2C1c1ccncc1 (stereo unspecified) | – | inconclusive: 0.178 µM [inhibitor, full curve, poor fit]
O=C(Nc1nc(-c2ccc(S(=O)(=O)N3CCOCC3)cc2)cs1)c1ccccc1 | – | inconclusive: 25.1 µM [inhibitor, partial curve, poor fit]
Cc1cccc(CN2CCN(Cc3cccc(-n4cccn4)c3)CC2CCO)n1 (stereo unspecified) | inconclusive: 11.2% [activator] | –
O=C(O)c1ccc(-n2cccn2)nc1 | inconclusive: 3.32% [activator] | –
N/C(=N\S(=O)(=O)c1cc(C(F)(F)F)cc(C(F)(F)F)c1)c1cccs1 | inconclusive: -17.4% [inhibitor] | –
O=C1Nc2ccc([N+](=O)[O-])cc2OC1CCN1CCCC1 (stereo unspecified) | – | inconclusive: 1.41 µM [inhibitor, full curve, poor fit]
Cc1sc2nc(CN(Cc3cccs3)C(=O)NC3CCCCC3)[nH]c(=O)c2c1C | inconclusive: 7.19% [activator] | –
O=S(=O)(c1ccc(N2CCC(c3ccc(Cl)cc3)=N2)cc1)N(CCO)CCO | – | inconclusive: 35.5 µM [activator, partial curve]
CC(=O)/C(=N\Nc1ccc(C)cc1)N1CCOCC1 | inactive: -1.87% | –
Fc1ccc(-c2n[nH]c(=S)n2-c2ccc3c(c2)OCCO3)cc1 | – | inconclusive: 0.501 µM [activator, partial curve, poor fit]
CC(C)CN1C(=O)/C(=C/c2cccs2)NC1=S | – | inconclusive: 31.6 µM [inhibitor, single point]
CN1CC(c2ccccc2Cl)C2(COc3ccccc3C2=O)C12C(=O)Nc1ccccc12 (stereo unspecified) | – | inconclusive: 20 µM [inhibitor, partial curve]
COc1ccc(/C=C2\CC/C(=C\c3ccc(OC)c(OC)c3)C2=O)cc1OC | – | inconclusive: 7.08 µM [inhibitor, full curve]
COc1ccccc1NC(=O)Cc1nn(C)c(=O)c2ccccc12 | – | inconclusive: 56.2 µM [inhibitor, single point]
O=C(C1CCN(Cc2ccc(F)cc2)CC1)N(CCc1ccccc1)Cc1ccccc1 | – | inconclusive: 20 µM [inhibitor, single point]
CCC(C)Oc1cccc(OCCCCN2C(=O)NC(C)(C)C2=O)c1 (stereo unspecified) | – | inconclusive: 56.2 µM [inhibitor, single point]
